Laboratory results as given in the supplement of paper PMC4967469.
By IC50 is meant the dose at which the fit gives 50% viability; a limit (>, <) means that the fit lies beyond the doses tested. For AUC the same curve is integrated over the 256-fold range of doses and scaled to a fraction; it is 1 without any effect and falls as sensitivity rises. For some assays here: A top dose marked as inferred was derived from the fitted curves, not read from the paper.

Key:
Test in all cases: Viability of human cancer cell lines after 72 h of drug (GDSC screen)
[1] = compound: O=C(O)c1ccc(-c2c[nH]c3ncc(-c4ccccc4)cc23)cc1C1CCCC1 [GSK-650394]; settings: top dose 16 µM; top dose inferred
Method: (§1)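 Human cancer cell lines in 384-well plates, medium with 10% serum, drug for 72 h over a 256-fold dose range (nine 2-fold or five 4-fold steps up to the top dose). Adherent lines were fixed and stained with the nucleic acid dye Syto60, suspension lines read with resazurin; signal relative to control wells, capped at 0 and 100%. One two-parameter sigmoid per drug and line, fitted in a mixed model over all curves with the slope shared within a line.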

[2] = compound: COc1cc([C@@H]2c3cc4c(cc3[C@@H](O[C@@H]3O[C@@H]5CO[C@@H](C)O[C@H]5[C@H](O)[C@H]3O)[C@H]3COC(=O)[C@H]23)OCO4)cc(OC)c1O [Etoposide]; settings: top dose 16 µM
Method: as §1

[3] = compound: C=C(c1ccc(C(=O)O)cc1)c1cc2c(cc1C)C(C)(C)CCC2(C)C [Bexarotene]; settings: top dose 8 µM
Method: as §1

[4] = compound: Cc1ccc2nc(NCCN)c3ncc(C)n3c2c1 [BMS-345541]; settings: top dose 16 µM
Method: as §1

[5] = compound: Oc1nc(-c2ccc(C(F)(F)F)cc2)nc2c1CSCC2 [XAV 939]; settings: top dose 5 µM; top dose inferred
Method: as §1

[6] = compound: COc1ccc(C(=O)CC2(O)C(=O)Nc3c(Cl)ccc(Cl)c32)cc1 [YK 4-279]; settings: top dose 10 µM
Method: as §1

[7] = compound: COc1cc(C(=O)NC2CCN(C)CC2)ccc1Nc1ncc2c(n1)N(C1CCCC1)C(C)CC(=O)N2C [NPK76-II-72-1]; settings: top dose 10.24 µM; top dose inferred
Method: as §1

For SW156 (kidney, adherent), the AUC [1] was 0.807, the IC50 [1] was 9.31 µM and the AUC [2] was 0.773. The IC50 [2] was 6.91 µM, the AUC [3] was 0.959 and the IC50 [3] was over 8 µM. The AUC [4] was 0.927, the IC50 [4] was over 16 µM and the AUC [5] was 0.974. The IC50 [5] was over 5 µM, the AUC [6] was 0.911 and the IC50 [6] was over 10 µM. It also gave an AUC [7] of 0.981 and an IC50 [7] of over 10.2 µM.

In the case of SW837 (large intestine, adherent), the AUC [1] is reported as 0.882, the IC50 [1] is reported as over 16 µM and the AUC [2] is reported as 0.942. For the same cell line, the IC50 [2] was over 16 µM, the AUC [3] was 0.975 and the IC50 [3] was over 8 µM. It also gave an AUC [4] of 0.855, an IC50 [4] of over 16 µM and an AUC [5] of 0.944. The IC50 [5] was over 5 µM, the AUC [6] was 0.913 and the IC50 [6] was over 10 µM. For the same cell line, the AUC [7] was 0.948 and the IC50 [7] was over 10.2 µM.

With SW872 (soft tissue, adherent) the AUC [1] was 0.824, the IC50 [1] was 8.35 µM and the AUC [2] was 0.429. For the same cell line, the IC50 [2] was 0.651 µM, the AUC [3] was 0.92 and the IC50 [3] was over 8 µM. It also gave an AUC [4] of 0.929, an IC50 [4] of over 16 µM and an AUC [5] of 0.953. The IC50 [5] was over 5 µM, the AUC [6] was 0.626 and the IC50 [6] was 1.34 µM. The AUC [7] was 0.982 and the IC50 [7] was over 10.2 µM.

In the case of “SW900 (lung squamous cell carcinoma, adherent)”, the AUC [1] is reported as 0.984, the IC50 [1] is reported as over 16 µM and the AUC [2] is reported as 0.605. For the same cell line, the IC50 [2] was 2.03 µM, the AUC [3] was 0.978 and the IC50 [3] was over 8 µM. For the same cell line, the AUC [4] was 0.927, the IC50 [4] was over 16 µM and the AUC [5] was 0.969. It also gave an IC50 [5] of over 5 µM, an AUC [6] of 0.777 and an IC50 [6] of 4.71 µM. The AUC [7] was 0.976 and the IC50 [7] was over 10.2 µM.

For SW1088 (glioma, adherent), the AUC [1] was 0.955, the IC50 [1] was over 16 µM and the AUC [2] was 0.975. For the same cell line, the IC50 [2] was over 16 µM, the AUC [3] was 0.905 and the IC50 [3] was over 8 µM. It also gave an AUC [4] of 0.957, an IC50 [4] of over 16 µM and an AUC [5] of 0.896. For the same cell line, the IC50 [5] was over 5 µM, the AUC [6] was 0.839 and the IC50 [6] was over 10 µM. The AUC [7] was 0.97 and the IC50 [7] was over 10.2 µM.

In the case of SW1463 (large intestine, adherent), the AUC [1] is reported as 0.889, the IC50 [1] is reported as over 16 µM and the AUC [2] is reported as 0.9. It also gave an IC50 [2] of over 16 µM, an AUC [3] of 0.969 and an IC50 [3] of over 8 µM. The AUC [4] was 0.923, the IC50 [4] was over 16 µM and the AUC [5] was 0.973. It also gave an IC50 [5] of over 5 µM, an AUC [6] of 0.873 and an IC50 [6] of over 10 µM. For the same cell line, the AUC [7] was 0.975 and the IC50 [7] was over 10.2 µM.

With TC-71 (Ewing sarcoma, adherent) the AUC [1] was 0.992, the IC50 [1] was over 16 µM and the AUC [2] was 0.851. For the same cell line, the IC50 [2] was 9.19 µM, the AUC [3] was 0.99 and the IC50 [3] was over 8 µM. For the same cell line, the AUC [4] was 0.882, the IC50 [4] was 12.1 µM and the AUC [5] was 0.985. It also gave an IC50 [5] of over 5 µM, an AUC [6] of 0.668 and an IC50 [6] of 1.68 µM. For the same cell line, the AUC [7] was 0.743 and the IC50 [7] was 2.73 µM.

TCCSUP (bladder, adherent) showed an AUC [1] of 0.982, an IC50 [1] of over 16 µM and an AUC [2] of 0.796. The IC50 [2] was 8.75 µM, the AUC [3] was 0.985 and the IC50 [3] was over 8 µM. It also gave an AUC [4] of 0.957, an IC50 [4] of over 16 µM and an AUC [5] of 0.952. For the same cell line, the IC50 [5] was over 5 µM, the AUC [6] was 0.772 and the IC50 [6] was 4.41 µM. It also gave an AUC [7] of 0.977 and an IC50 [7] of over 10.2 µM.

Work on TE-10 (oesophagus, adherent) yielded an AUC [1] of 0.785, an IC50 [1] of 6.7 µM and an AUC [2] of 0.655. The IC50 [2] was 2.67 µM, the AUC [3] was 0.961 and the IC50 [3] was over 8 µM. It also gave an AUC [4] of 0.888, an IC50 [4] of over 16 µM and an AUC [5] of 0.96. The IC50 [5] was over 5 µM, the AUC [6] was 0.528 and the IC50 [6] was 0.746 µM. It also gave an AUC [7] of 0.979 and an IC50 [7] of over 10.2 µM.

With U031 (kidney, adherent) the AUC [1] was 0.715, the IC50 [1] was 4.15 µM and the AUC [2] was 0.803. For the same cell line, the IC50 [2] was 8.27 µM, the AUC [3] was 0.971 and the IC50 [3] was over 8 µM. For the same cell line, the AUC [4] was 0.793, the IC50 [4] was 7.6 µM and the AUC [5] was 0.944. It also gave an IC50 [5] of over 5 µM, an AUC [6] of 0.872 and an IC50 [6] of over 10 µM. It also gave an AUC [7] of 0.977 and an IC50 [7] of over 10.2 µM.
